Laboratory results from PMC8139826.
These are yes or no findings as the source states them, for the method shown. Binding seen in cells or lysates may run through a third protein. Some entries that bind do so weakly or less than the wild type. Sequences can lack the tags named with a protein. Each block holds one molecule with its values, some of them ahead of it.

The chains behind the UniProt entries cited, without tags or fusion partners.
UniProt Q15078: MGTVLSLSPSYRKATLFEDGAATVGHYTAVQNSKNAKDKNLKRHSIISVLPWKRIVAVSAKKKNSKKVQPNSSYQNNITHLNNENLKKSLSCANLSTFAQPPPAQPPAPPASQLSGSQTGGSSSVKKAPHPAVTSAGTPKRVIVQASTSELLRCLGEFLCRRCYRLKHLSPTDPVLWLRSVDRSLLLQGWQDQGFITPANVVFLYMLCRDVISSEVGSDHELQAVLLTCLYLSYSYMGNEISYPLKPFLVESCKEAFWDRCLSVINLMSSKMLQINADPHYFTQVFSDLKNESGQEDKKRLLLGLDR
UniProt O08539: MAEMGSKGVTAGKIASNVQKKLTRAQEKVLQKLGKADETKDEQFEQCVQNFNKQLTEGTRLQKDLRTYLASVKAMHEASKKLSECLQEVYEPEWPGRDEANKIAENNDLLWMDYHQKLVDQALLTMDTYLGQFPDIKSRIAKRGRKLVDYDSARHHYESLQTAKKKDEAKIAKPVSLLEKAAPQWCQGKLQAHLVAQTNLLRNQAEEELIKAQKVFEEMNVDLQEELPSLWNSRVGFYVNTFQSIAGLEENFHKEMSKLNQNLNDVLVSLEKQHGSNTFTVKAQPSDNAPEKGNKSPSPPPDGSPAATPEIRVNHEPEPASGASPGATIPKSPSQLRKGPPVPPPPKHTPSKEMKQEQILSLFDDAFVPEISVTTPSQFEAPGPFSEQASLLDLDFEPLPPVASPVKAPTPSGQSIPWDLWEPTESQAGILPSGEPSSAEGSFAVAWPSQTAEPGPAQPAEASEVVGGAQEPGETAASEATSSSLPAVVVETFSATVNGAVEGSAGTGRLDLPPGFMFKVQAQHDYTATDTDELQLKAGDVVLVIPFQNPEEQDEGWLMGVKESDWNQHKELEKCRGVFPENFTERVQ

What was measured:
[1] = target: T1, bGST-Amphiphysin I (279-695) (UniProt P49418); assay: pull-down; GST fusions of Amphiphysin I bound to glutathione agarose beads, incubated with mouse brain lysate overnight; beads washed three times with PBST; bound proteins detected by Western blot; only the target purified
T1 sequence: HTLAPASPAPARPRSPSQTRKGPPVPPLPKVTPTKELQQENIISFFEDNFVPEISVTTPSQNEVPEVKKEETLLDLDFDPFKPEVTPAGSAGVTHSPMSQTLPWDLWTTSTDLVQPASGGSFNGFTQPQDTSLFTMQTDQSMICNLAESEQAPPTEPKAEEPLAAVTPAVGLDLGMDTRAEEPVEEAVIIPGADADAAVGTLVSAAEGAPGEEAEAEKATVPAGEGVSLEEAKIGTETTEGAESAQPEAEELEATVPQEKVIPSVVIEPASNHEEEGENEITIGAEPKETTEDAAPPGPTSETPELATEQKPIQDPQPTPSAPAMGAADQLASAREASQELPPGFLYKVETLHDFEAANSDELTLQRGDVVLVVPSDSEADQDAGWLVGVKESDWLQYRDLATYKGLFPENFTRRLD

[2] = target: T2, bGST-Amphiphysin I (1-278) (UniProt P49418); assay: as above
T2 sequence: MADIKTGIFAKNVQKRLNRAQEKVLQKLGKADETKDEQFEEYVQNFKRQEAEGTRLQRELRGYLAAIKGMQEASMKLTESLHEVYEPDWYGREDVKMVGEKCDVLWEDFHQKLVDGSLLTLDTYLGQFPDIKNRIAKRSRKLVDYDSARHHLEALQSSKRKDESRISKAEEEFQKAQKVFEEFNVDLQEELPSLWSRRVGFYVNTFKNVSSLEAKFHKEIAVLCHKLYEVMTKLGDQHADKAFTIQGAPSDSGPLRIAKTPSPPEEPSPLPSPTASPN

bGST-Amphiphysin I-FL = target: T3, bGST-Amphiphysin I-FL (UniProt P49418); assay: as above
T3 sequence: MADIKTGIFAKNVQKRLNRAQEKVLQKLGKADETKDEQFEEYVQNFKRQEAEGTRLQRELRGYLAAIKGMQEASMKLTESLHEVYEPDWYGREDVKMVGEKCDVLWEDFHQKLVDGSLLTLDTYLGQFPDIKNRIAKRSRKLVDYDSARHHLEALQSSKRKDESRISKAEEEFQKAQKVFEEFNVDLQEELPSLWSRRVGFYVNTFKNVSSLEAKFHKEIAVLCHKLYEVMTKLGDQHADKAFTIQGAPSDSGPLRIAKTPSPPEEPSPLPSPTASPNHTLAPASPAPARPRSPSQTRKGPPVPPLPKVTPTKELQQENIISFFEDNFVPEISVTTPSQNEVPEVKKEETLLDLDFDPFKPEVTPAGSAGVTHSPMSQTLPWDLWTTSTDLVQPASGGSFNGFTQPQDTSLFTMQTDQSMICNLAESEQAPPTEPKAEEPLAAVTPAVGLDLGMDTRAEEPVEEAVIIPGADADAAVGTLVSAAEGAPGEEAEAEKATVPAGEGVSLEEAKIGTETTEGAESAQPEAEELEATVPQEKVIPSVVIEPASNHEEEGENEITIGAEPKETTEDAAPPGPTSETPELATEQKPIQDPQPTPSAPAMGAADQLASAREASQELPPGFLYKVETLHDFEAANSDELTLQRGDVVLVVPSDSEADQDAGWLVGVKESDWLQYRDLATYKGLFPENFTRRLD

Flag-His-p35 = Flag-His-p35 (UniProt Q15078); assay: pull-down; His pull-down on Ni-NTA agarose; results: HEK293 cells co-transfected with His-p35, EGFP-Tau and GST-Amphiphysin I fragments; methods: Flag-His-p35 beads incubated overnight with lysates of transfected HEK293 cells; Western blot

binding [1]: no binding
binding [2]: binds
binding (bGST-Amphiphysin I-FL): binds
Molecule: Amphiphysin II (from UniProt O08539 1-588)

binding (Flag-His-p35): binds
B1: GST-Amphiphysin I (1-278), expressed in HEK293 (domain or fragment, UniProt P49418 1-278)
chain: T2 sequence

binding [1]: binds
binding [2]: no binding
binding (bGST-Amphiphysin I-FL): binds
B2: Dynamin I (protein, UniProt P39053 1-867)
chain: MGNRGMEDLIPLVNRLQDAFSAIGQNADLDLPQIAVVGGQSAGKSSVLENFVGRDFLPRGSGIVTRRPLVLQLVNSTTEYAEFLHCKGKKFTDFEEVRLEIEAETDRVTGTNKGISPVPINLRVYSPHVLNLTLVDLPGMTKVPVGDQPPDIEFQIRDMLMQFVTKENCLILAVSPANSDLANSDALKIAKEVDPQGQRTIGVITKLDLMDEGTDARDVLENKLLPLRRGYIGVVNRSQKDIDGKKDITAALAAERKFFLSHPSYRHLADRMGTPYLQKVLNQQLTNHIRDTLPGLRNKLQSQLLSIEKEVDEYKNFRPDDPARKTKALLQMVQQFAVDFEKRIEGSGDQIDTYELSGGARINRIFHERFPFELVKMEFDEKELRREISYAIKNIHGIRTGLFTPDMAFETIVKKQVKKIREPCLKCVDMVISELISTVRQCTKKLQQYPRLREEMERIVTTHIREREGRTKEQVMLLIDIELAYMNTNHEDFIGFANAQQRSNQMNKKKTSGNQDEILVIRKGWLTINNIGIMKGGSKEYWFVLTAENLSWYKDDEEKEKKYMLSVDNLKLRDVEKGFMSSKHIFALFNTEQRNVYKDYRQLELACETQEEVDSWKASFLRAGVYPERVGDKEKASETEENGSDSFMHSMDPQLERQVETIRNLVDSYMAIVNKTVRDLMPKTIMHLMINNTKEFIFSELLANLYSCGDQNTLMEESAEQAQRRDEMLRMYHALKEALSIIGDINTTTVSTPMPPPVDDSWLQVQSVPAGRRSPTSSPTPQRRAPAVPPARPGSRGPAPGPPPAGSALGGAPPVPSRPGASPDPFGPPPQVPSRPNRAPPGVPSLGAWRLNSPQGKHENRAGKARL
